# Laboratory results: PubChem BioAssay AID488969 (Vanderbilt High Throughput Screening Facility, 2010)
# Whole data set: some 110,000 compounds, median “z-score” near -0.1, cut for the highest 2% near 2. The list shows a part of the results. The source made the active and inactive calls.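 Rule for the calls: active = z-score in the third read window above 3 or below -3; inactive = the rest.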
# Biological target: Metabotropic glutamate receptor 8 (Rattus norvegicus) (UniProt P70579)
# Assay: rat mGluR8 modulators via GIRK flux, primary screen, cell-based, thallium flux, HTS (AID 488969)
# Details: HEK293 rat mGluR8, GIRK (G protein-gated inwardly rectifying potassium channel) thallium flux, FluoZin2; at 10 µM; stronger effect = higher value; submaximal glutamate (EC20) added with thallium
# Sequence of UniProt P70579 (P70579 whole entry, looked up): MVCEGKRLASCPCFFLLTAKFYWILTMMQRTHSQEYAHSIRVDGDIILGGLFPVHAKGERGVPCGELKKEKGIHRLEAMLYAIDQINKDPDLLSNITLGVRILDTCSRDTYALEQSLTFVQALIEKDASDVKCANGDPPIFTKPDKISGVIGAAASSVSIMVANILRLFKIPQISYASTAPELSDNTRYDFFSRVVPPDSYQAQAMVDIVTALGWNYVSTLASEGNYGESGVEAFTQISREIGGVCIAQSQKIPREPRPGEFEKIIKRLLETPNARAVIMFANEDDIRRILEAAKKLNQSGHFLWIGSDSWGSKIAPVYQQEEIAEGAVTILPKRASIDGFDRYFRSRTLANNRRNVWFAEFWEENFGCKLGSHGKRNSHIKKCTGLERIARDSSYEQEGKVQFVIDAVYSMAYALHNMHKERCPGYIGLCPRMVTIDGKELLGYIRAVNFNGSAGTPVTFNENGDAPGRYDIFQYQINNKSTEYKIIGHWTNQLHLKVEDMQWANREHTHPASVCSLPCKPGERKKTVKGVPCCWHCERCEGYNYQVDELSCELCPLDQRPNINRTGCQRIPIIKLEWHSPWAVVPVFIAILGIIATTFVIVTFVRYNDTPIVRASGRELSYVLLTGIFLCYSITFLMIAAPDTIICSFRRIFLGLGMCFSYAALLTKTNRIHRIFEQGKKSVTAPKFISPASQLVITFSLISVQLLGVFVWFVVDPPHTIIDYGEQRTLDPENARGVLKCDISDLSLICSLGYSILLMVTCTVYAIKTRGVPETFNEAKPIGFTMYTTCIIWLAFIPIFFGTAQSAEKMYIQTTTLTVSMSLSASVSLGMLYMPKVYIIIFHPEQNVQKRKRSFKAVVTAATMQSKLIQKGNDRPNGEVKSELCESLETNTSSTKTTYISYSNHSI
row,SMILES,z-score
1,O=C(NC(=S)NNC(=O)c1cccs1)c1ccc(Br)o1,active: 4.37
2,Cc1cnc(C(=O)OCC(=O)NC2CCCCC2)cn1,0.866
3,C=CC#CC[N+]1(CC#Cc2ccccc2)CCOCC1,-0.316
4,CCOC(=O)C1C(=O)C(C(C)=O)C(=O)CC1CC(C)SCC (stereo unspecified),0.329
5,CC(C)(C)NC(=O)CSC(=Nc1ccc(F)cc1)NC#N,-0.227
6,CC(=O)NCC(=O)OCN1C(=O)c2ccccc2C1=O,1.22
7,Cc1ccc(S(=O)(=O)Nc2cccc(C(=O)Nc3cc(C)ccn3)c2)cc1,0.154
8,Cc1cccc(N(CC(=O)NC2CCCC2)C(=O)c2cc3cc4cccc(C)c4nc3s2)c1C,-0.282
9,O=C(CSc1nc2ccccc2o1)N1c2ccccc2Sc2ccc(Cl)cc21,-0.0608
10,O=C1CCc2cc(S(=O)(=O)NC(Cc3ccccc3)C(=O)NC3CCCCC3)ccc2N1 (stereo unspecified),0.068
11,Cc1c(O)ccc2c3c(c(=O)oc12)CCC(C)C3 (stereo unspecified),-0.81
12,CC1CC(C)CN(C(=O)Cn2c(SCC(=O)N3CCc4ccccc4C3)nc3ccccc32)C1 (stereo unspecified),-0.128
13,CCCNc1nc(C)nc2c1cnn2CCc1ccccc1,-0.187
14,CCCC1CCC(=NNC(=O)OC(C)(C)C)CC1 (stereo unspecified),-0.234
15,COc1ccc(CCN(C(=O)C(F)(F)F)C(C(=O)NC2CCCCC2)c2ccc(C)s2)cc1 (stereo unspecified),0.357
16,COc1ccc(OC)c(NC(=S)NCc2cccnc2)c1,-0.256
17,CN(c1ccc(C(=O)NC2CC2)cc1)S(=O)(=O)c1ccccc1,-0.391
18,O=S(=O)(NC1CCCCC1Nc1ccc(Cl)cc1)c1ccccc1 (stereo unspecified),-0.0667
19,Cc1cc(-c2n[nH]c(=S)n2Cc2ccccc2)cs1,0.453
20,CCOC(=O)c1ccc(N2C(=O)CC(C3CCCO3)C2=O)cc1 (stereo unspecified),-0.0255
21,O=C(COC(=O)Cc1cccc2ccccc12)Nc1ccccc1-c1ccccc1,-0.174
22,O=C(CSc1n[nH]c(=O)[nH]c1=O)N/N=C/c1ccccc1,0.0445
23,Cc1cc(C(=O)N/N=C/c2ccco2)c2ccccc2n1,0.0513

row,SMILES,z-score
1,NS(=O)(=O)c1ccc2nc(NC(=O)C3CCCO3)sc2c1 (stereo unspecified),2.74
2,COC(=O)c1ccccc1NC(=O)CCNC(=O)Cn1cnc2ccccc2c1=O,-0.113
3,Cc1nc(-c2cccnc2)sc1C(=O)Nc1ccc(C(F)(F)F)cc1,-0.151
4,COc1cc(/C=N/NC(=O)COc2c(C)cc([N+](=O)[O-])cc2C)ccc1OC(=O)c1ccccc1,-0.81
5,COC(=O)c1ccccc1NC(=O)COC(C)=O,-1.01
6,O=C(NCc1ccc2c(c1)OCO2)c1cc([N+](=O)[O-])ccc1N1CCCCC1,-0.364
7,CC(=O)Nc1cccc(Oc2ccc3c(c2)C(=O)N(CCC(=O)O)C3=O)c1,-0.328
8,COc1ccc(N2CCN(CC(=O)Nc3cc(C)on3)CC2)cc1,0.403
9,O=C(NCCCN1CCCC1=O)c1ccc(CNS(=O)(=O)c2ccc(F)cc2)cc1,-0.08
10,Cc1ccc(Cl)cc1N1CCN(C(=O)COc2ccc(S(=O)(=O)NC(C)C)cc2)CC1,0.944
11,CCOC(=O)N1CCN(C(=O)COc2ccc(S(=O)(=O)Nc3ccc(OCC)cc3)cc2)CC1,-0.616
12,COc1ccc(CCNC(=O)Cc2cc(OC)c(OC)cc2[N+](=O)[O-])cc1OC,-0.376
13,O=C(Nc1ccc(N2CCOCC2)cc1)c1ccncc1,-0.149
14,CC1=C(C(N)=O)C(c2ccccn2)n2nc(SCc3ccccc3Cl)nc2N1 (stereo unspecified),-1.44
15,CSc1nc(Cl)c(C#N)c(-c2ccc(C)cc2)n1,-0.547
16,O=C(c1ccco1)N1CCN(C(=O)C2(S(=O)(=O)c3ccc(Cl)cc3)CC2)CC1,0.0993
17,COc1cccc(C(=O)NC(=S)Nc2ccc(N3CCCC3)cc2)c1,-0.087
18,COc1cc(/C=C/C(=O)N2CCOCC2)ccc1OCc1ccccc1,-0.136
19,Cc1ccc(C(=O)N/N=C/C2=Cc3ccccc3OC2C)cc1 (stereo unspecified),active: 3.08
20,O=c1[nH]c2ccsc2c(=O)n1-c1ccc(F)cc1,-0.0454
21,Cc1cccc(NC(=S)NNC(=O)CCn2cc(C)cn2)c1,0.051
22,CCOc1ccccc1NC(=O)COn1nnc2ccccc21,-0.117
23,CC1=C(C)[N+](=O)C2(O)CCCCC2(C)N1[O-] (stereo unspecified),0.0837

row,SMILES,z-score
1,COc1ccc(/C=N/c2sc3c(c2C#N)CCN(Cc2ccccc2)C3)c(O)c1,0.318
2,O=C(CNc1ccccc1)c1ccc([N+](=O)[O-])cc1,-0.572
3,Cn1c(NCCCN2CCOCC2)nc2c1c(=O)n(Cc1ccc(Cl)cc1Cl)c(=O)n2C,-0.185
4,COc1ccc(OC)c(/C=N/N(C)c2ccccc2)c1,-0.415
5,CN(C)S(=O)(=O)c1ccc(C(=O)Oc2ccccc2)cc1,-0.199
6,Cc1c(/C=N/NC(=O)C(NC(=O)c2ccc3c(c2)OCO3)C(C)C)c2ccccc2n1C (stereo unspecified),0.000906
7,Cc1nc(Nc2ccccc2Cl)sc1C(=O)Nc1ccccc1,-0.241
8,CC(=O)N1CN(S(=O)(=O)c2ccc(C)cc2)CC1C (stereo unspecified),-0.352
9,Cc1nc(-c2ccccc2)sc1C(=O)CSc1ccccc1,-0.297
10,Cc1c(C(=O)O)[nH]c2c1C(=O)CC(c1ccccc1)C2 (stereo unspecified),-0.21
11,CNC(=S)N/N=C/c1ccccc1Cl,1.82
12,COc1cc(NC(=O)CCc2nc(-c3cccs3)no2)cc(OC)c1OC,0.311
13,COC(=O)c1ccc(C)c(NS(=O)(=O)c2ccc(NC(C)=O)cc2)c1,-0.131
14,O=C(c1ccccc1)c1nc[nH]c1C(=O)Nc1ccccc1,1.81
15,Cc1ccc(Cl)cc1N1CCN(C(=O)c2cccc3c(=O)c(C)c(-c4ccccc4)oc23)CC1,-1.24
16,CCOC(=O)c1ccc(NC(=O)C2(c3ccccc3)CCOCC2)cc1,-0.351
17,COC(=O)CSC1=C(C#N)C(=O)NC2(CCCCC2)S1,-0.388
18,CC(C)OC(=O)c1cccnc1SCc1cc(=O)n2ccccc2n1,-0.709
19,COC(=O)c1ccc(CSc2ncnc3c2sc2nc(N4CCOCC4)c4c(c23)CCCC4)o1,0.723
20,C/C(=N/O)c1cc(C(C)(C)C)c(O)c(C(C)(C)C)c1,-0.256
21,C=CCOc1ccc(C2OC34CCCCC3C(C#N)(C#N)C2(C#N)C(=N)O4)cc1 (stereo unspecified),-0.0615
22,COC(C)(C)[C@]12CC(O)(C(C)C)ON1[C@H]1CCCCC1N2O (stereo partly specified),0.162
23,O=C(COC(=O)c1ccc(-c2nnc(-c3ccccc3)o2)cc1)c1ccccc1,-0.145

row,SMILES,z-score
1,CCOc1cc(NC(=O)c2cnccn2)c(OCC)cc1NC(=O)c1ccc(C)cc1,0.0296
2,Cc1ccc(C(=O)Nc2sc3c(c2C#N)CCCCC3)cc1C,0.0633
3,COc1ccc(NC(=O)c2ccc(C#N)cc2)cc1NS(=O)(=O)c1ccc(F)cc1,-0.0767
4,CCC(C)n1nccc1NC(=O)C(C)OC(=O)c1cc2ccccc2[nH]1 (stereo unspecified),0.276
5,Cc1ccc(CNC(=O)c2cc3c(C)nc4ccccc4c3o2)cc1,0.19
6,COCCCNC(=S)NCCCNc1nc2cc3c(cc2cc1C#N)OCO3,-0.155
7,CCC(Oc1ccccc1)C(=O)Nc1ccsc1C(=O)OC (stereo unspecified),-0.397
8,CCCN1CCN(C(=O)CCCNC(=O)Cn2cnc3sc(C)c(C)c3c2=O)CC1,1.02
9,CCOC(=O)N1CCC(N2CC34C=CC(O3)C(C(=O)Nc3ccc(OCC)cc3)C4C2=O)CC1 (stereo unspecified),1.09
10,c1coc(-c2nnc(SCc3nc4ccccc4[nH]3)o2)c1,-0.511
11,Cc1cc(C)c(S(=O)(=O)N2CCN=C2c2ccccc2)cc1C,-0.209
12,CCCCc1ccc(N=N/C(C(=O)Nc2cc(OC)c(NC(C)=O)cc2OC)=C(/C)O)cc1,0.28
13,CC(C)SCCCCOc1ccc2ccccc2c1,-0.0609
14,CCCc1ccc(C(C)NC(=O)c2cnccn2)cc1 (stereo unspecified),0.069
15,CN(C(=O)CSc1nnnn1-c1ccccc1)C1CCCCC1,-0.933
16,Cn1c(SC/C=C/c2ccccc2)nnc1-c1cccs1,-0.0461
17,COC(=O)/C=C1/N/C(=N\c2nc(C)cc(C)n2)N(c2ccc(C)c(C)c2)C1=O,0.00026
18,O=C(CN1C2=NCCN2c2ccccc21)C12CC3CC(CC(C3)C1)C2,0.569
19,O=C(Cn1cccc1)N1CCN(c2ccc(F)cc2)CC1,-0.241
20,Clc1ccccc1CSc1nnc(-c2ccncc2)o1,0.342
21,CC1CCCCC1NC(=S)NC(=O)c1ccccc1Br (stereo unspecified),0.799
22,COc1ccc(S(=O)(=O)N2CCN(C(=O)NC3CCCCC3)CC2)cc1OC,0.142
23,CCOC(=O)c1sc(NC(=S)NC(=O)c2cccc(Cl)c2)c(C(=O)OCC)c1C,0.646

row,SMILES,z-score
1,Nc1c(Cl)cc(Cl)cc1C(=O)OCC(=O)N1CCCC1,-0.308
2,Cc1ccccc1NC1(C#N)C(=O)Nc2ccccc21 (stereo unspecified),0.00214
3,CCOC(=O)c1c(NC(=O)/C=C/c2ccc3c(c2)OCO3)sc(C)c1CC,0.00149
4,COc1ccc2c(Cl)c(C(=O)NN)sc2c1,0.0612
5,CCC(=O)Nc1ccc(S(=O)(=O)Nc2cccnc2)cc1,0.232
6,Cn1c(=O)c2c(nc(NCc3ccco3)n2C)n(C)c1=O,-0.268
7,CCOC(=O)c1ccc2c(c1)nc(-c1ccc(F)cc1)c1nccn12,-0.0773
8,COc1ccccc1C(=O)NCCn1cc(SCC(=O)Nc2cc(C)on2)c2ccccc21,-0.181
9,Nc1cccc2nc3ccccc3cc12,0.335
10,CCc1nc2ccccc2c(C(=O)OCC(=O)Nc2cccc(S(=O)(=O)N3CCOCC3)c2)c1C,-1.75
11,Cc1nc2[nH]c(=S)[nH]c2cc1Br,0.114
12,Cc1nn(CC(=O)c2ccc(Cl)cc2Cl)c(C)[n+]1N,0.0687
13,Cc1cc(C)c2c(CC(=O)Nc3ccc(Cl)cn3)coc2c1,-0.0231
14,Cc1ccc(S(=O)(=O)NC(CC(C)C)C(=O)NCc2ccco2)cc1 (stereo unspecified),0.0163
15,Cc1cc(=O)[nH]c(SCc2nc3ncccn3c2Br)n1,0.27
16,Cc1c(C)n(C)c2ccc(C(=O)Nc3cccc4ccccc34)cc12,0.368
17,O=C(NCCNc1cc(Cl)ccc1[N+](=O)[O-])c1ccco1,-1.06
18,Cc1cc(C)nc(-n2nc(C)cc2NC(=O)CNCc2ccccc2)n1,-0.571
19,CC(NC(=O)Cn1ncc(Cl)c(Cl)c1=O)C12CC3CC(CC(C3)C1)C2 (stereo unspecified),-0.204
